# Out of some 50,000 compounds screened, about 800 (1.6%) showed an effect of 50% or more. The list shows a part of the results.
# Target: Bcl-2-like protein 10 (Homo sapiens) (UniProt Q9HD36)
# Assay: TR3 peptide-Bcl-B binding displacers, biochemical primary FP assay, phenotype converters (AID 1240);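 further: 0% = Bcl-B with tracer peptide and DMSO and 100% = tracer peptide lacking Bcl-B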
# Settings: GST-Bcl-B / FITC-TR3 peptide fluorescence polarization; stronger effect = higher value; compound at 3.75 mg/L
# Sequence of UniProt Q9HD36 (Q9HD36 whole entry, looked up): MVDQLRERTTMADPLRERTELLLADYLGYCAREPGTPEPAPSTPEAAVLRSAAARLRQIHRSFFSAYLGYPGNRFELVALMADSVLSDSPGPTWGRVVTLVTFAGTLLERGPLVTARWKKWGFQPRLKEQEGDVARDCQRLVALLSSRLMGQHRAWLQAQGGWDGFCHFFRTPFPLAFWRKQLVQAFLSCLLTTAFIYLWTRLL
row,SMILES,displacement
1,CC(=O)CC(=O)Nc1ccc(NC(=O)CC(C)=O)c(Cl)c1,-6%
2,O=C1NC(=S)N(c2ccc(Br)cc2)C(=O)/C1=C/C=C/c1ccccc1,12.1%
3,Clc1ccc(C=NN2CCN(Cc3ccccc3)CC2)cc1,-0.6%
4,COc1ccc2c(c1)N(C(=O)CN1C(=O)c3ccccc3C1=O)C(C)(C)c1ssc(=S)c1-2,-2.3%
5,Cc1cc(N2C(=O)NC(=O)/C(=C\c3ccco3)C2=O)ccc1Br,74%
6,CCc1nnc(NC(=O)c2cc([N+](=O)[O-])ccc2Cl)s1,6.3%
7,COc1ccccc1NC(=O)c1ccc(OC)c([N+](=O)[O-])c1,4.7%
8,COc1cccc(OCCOc2ccc(/C=C3\C(=O)NN(c4ccccc4)C3=O)cc2OC)c1,-0.2%
9,COc1ccc(S(=O)(=O)N2CCN(Cc3ccccc3Br)CC2)cc1,0.7%
10,Cc1ccc(C(=O)N/N=C/c2ccc(-c3ccc(Br)cc3[N+](=O)[O-])o2)o1,-6.4%
11,S=C(Sc1nc(Nc2ccccc2)nc(Nc2ccccc2)n1)N1CCOCC1,3.1%
12,CCc1ccc(NC(=O)C(=O)NCC(O)c2ccccc2)cc1 (stereo not drawn),5.6%
13,COc1ccc(C(=O)Nc2ccc(Cl)cc2C)cc1OC,13.6%
14,CCCCOC(=O)c1cccc(NC(=O)COc2cc(C)cc(C)c2)c1,-3.4%
15,COc1ccc(-c2ccc(C=C3C(=O)c4ccccc4C3=O)o2)c([N+](=O)[O-])c1,20.7%
16,O=C1N=C(N2CCN(C3=NC(=O)/C(=C\c4ccc(O)cc4)S3)CC2)S/C1=C\c1ccc(O)cc1,-12.2%
17,CCCCOC(=O)c1ccc(NC(=O)Nc2ccccc2)cc1,-3.6%
18,O=C(/C=C/c1ccc(F)cc1)NC(=S)NCc1ccco1,18.2%
19,CC(=O)NC(NC(C)=O)c1cccc([N+](=O)[O-])c1,2.8%
20,CC(C)(C)C(=O)Nc1ccc(C(=O)Nc2ccc(NC(=O)c3ccc(NC(=O)C(C)(C)C)cc3)c(Cl)c2)cc1,15.8%
21,Nc1nnc(CCS(=O)(=O)c2ccc3ccccc3c2)s1,0.1%
22,COc1ccc(/C=C/C(=O)c2c(O)c(OC)c3occc3c2OC)cc1,9%

row,SMILES,displacement
1,COc1ccc(C(=O)ON=C2c3ccccc3-c3ccccc32)cc1[N+](=O)[O-],12.2%
2,COc1ccc(C(NC(=O)/C=C\c2ccco2)c2ccc(OC)cc2)cc1,-11.6%
3,O=C1C2C3C=CC(C2C(=O)N1Cc1cccnc1)C1C(=O)N(Cc2cccnc2)C(=O)C31 (stereo not drawn),-6.1%
4,COc1ccc(CN2CCN(C3CCCCC3)CC2)c(OC)c1OC,0.6%
5,COc1ccc(-c2cc(=O)n3[nH]c(-c4ccc(C)cc4)cc3n2)cc1,0.2%
6,Cc1ccc(OCC(=O)Nc2ccc(I)cc2Cl)cc1,11.2%
7,CCNC(=O)/C(C#N)=C/c1ccc(Cl)cc1Cl,-6%
8,C=CCN1C(=O)/C(=C\c2ccc(Br)cc2)C(=O)NC1=S,12.4%
9,CCOc1ccccc1NC(=O)CN(c1cccc([N+](=O)[O-])c1)S(=O)(=O)c1ccccc1,10.6%
10,Cc1ccnc(N2C(=O)C3C4c5ccccc5C(c5ccccc54)C3C2=O)c1 (stereo not drawn),5.1%
11,CCOc1ccc(OCC)c(C(=O)O)c1,-12.7%
12,COc1cccc(NC(=O)c2ccc(C)c([N+](=O)[O-])c2)c1,7.1%
13,O=C(c1ccco1)N1CCN(Cc2ccc(Cl)cc2)CC1,-9.7%
14,Cc1sc(NC(=O)c2cccnc2)nc1-c1ccc(Br)cc1,0.7%
15,COC(=O)CSc1nc2sc3c(c2c(=O)n1-c1ccc(OC)cc1)CC(C)(C)OC3,-4.4%
16,COc1ccc(S(=O)(=O)N(CC(=O)Nc2cc(Cl)ccc2OC)Cc2ccccc2)cc1,-0.3%
17,Cc1c(C(=O)Nc2cc(C(F)(F)F)cc(C(F)(F)F)c2)oc2ccccc12,-1.2%
18,COC(=O)C1=C(C)N(c2ccc(C)cc2)/C(=C\c2ccc(OCC(=O)Nc3ccccc3Cl)cc2)C1=O,7.6%
19,Cc1cc(/C=C2/SC(=S)N(CC(=O)O)C2=O)c(C)n1-c1ccc([N+](=O)[O-])cc1,6.3%
20,COc1ccc(C(=O)O/N=C(\N)c2cccc([N+](=O)[O-])c2)cc1,-2.8%
21,CCOC(=O)N1CCN(c2ccc3nnnn3n2)CC1,10.5%
22,Cc1ccc(-c2csc(NC(=O)c3ccccc3F)c2C(=O)O)cc1,-6.7%

row,SMILES,displacement
1,COc1ccc(CC(=O)NCC2(c3ccccc3)CCCC2)cc1OC,-3.4%
2,CC(C)(C)C(=O)CC(=O)c1ccc(Br)cc1,15.8%
3,CCn1c2ccccc2c2cc(/C=N/Nc3ccc([N+](=O)[O-])cc3)ccc21,-7.5%
4,O=[N+]([O-])c1ccc(N2CCN(S(=O)(=O)Cc3ccccc3)CC2)cc1NC1CC1,9.4%
5,COc1cccc(/C=C/C(=O)c2ccc(F)cc2)c1OC,-1.5%
6,Cc1cc(C)nc(NC(=O)C23CC4CC(CC(C4)C2)C3)c1,2.4%
7,CCOC(=O)NC(NC(=S)Nc1ccc(C(C)=O)cc1)C(Cl)(Cl)Cl (stereo not drawn),-1.1%
8,COC(=O)C(C)NC(=O)C(c1ccccc1)c1ccccc1 (stereo not drawn),10.9%
9,Cc1ccc(C(=O)Nc2c(-c3ccccc3)nc3cc(C)ccn23)cc1,8.5%
10,CCCn1c(/C=C(/OC(=O)c2ccccc2)c2ccccc2)nc2ccccc21,-6%
11,O=C(Cc1cccc2ccccc12)NCC1(c2ccccc2)CCOCC1,-3.1%
12,CCOC(=O)c1csc(NC(=O)c2ccc([N+](=O)[O-])o2)n1,-8.8%
13,O=C(NN=C1CCC(=NNC(=O)c2ccccc2Cl)CC1)c1ccccc1Cl,6.7%
14,COc1ccc(NC(=O)c2ccccc2NC(=O)c2ccco2)cc1,-3.6%
15,CN(C)c1cccc(NC(=O)c2cc3ccccc3o2)c1,12.4%
16,COCCOC(=O)c1c(C)oc2ccc(OCC(N)=O)cc12,7.8%
17,CCN(CC)c1ccc(/C=N/NC(=O)CSc2nc3ccccc3[nH]2)c(O)c1,-12.1%
18,CCOc1cc(/C=N/NC(=O)CSc2nc(C)cc(C)n2)ccc1OCc1cccc(Cl)c1,-7.7%
19,O=C(NCCNC(=O)c1cccnc1)c1cccnc1,0%
20,CC(C)C(=O)NCCNc1ccc([N+](=O)[O-])cc1Cl,-3.3%
21,CCOc1ccc(-c2cc(C(=O)Nc3ccncc3)c3ccccc3n2)cc1,5.9%
22,Cc1cc(C)c2nc(NC(=O)c3ccc(F)c(F)c3)sc2c1,-0.9%

row,SMILES,displacement
1,CCc1[nH]nc(C(=O)N/N=C/c2ccccn2)c1C,-14.5%
2,CCn1nnnc1-c1ccc(OC)c(S(=O)(=O)Nc2ccc(C)c(C)c2)c1,6.6%
3,O=C(c1ccc(S(=O)(=O)N2CCCC2)cc1)N1CCN(c2ccccc2)CC1,11.3%
4,Cc1cc(NC(=O)c2ccc(Cl)cc2)ccc1NC(=O)c1ccccc1,-6.4%
5,CN(C)N1C(=O)c2ccc3c4c(ccc(c24)C1=O)CC3,6.4%
6,Cc1ccc(SCc2cc(=O)n(-c3nc4ccccc4s3)[nH]2)cc1,8.6%
7,COc1cc(OC)c(OC)cc1CN1CCN(Cc2cccnc2)CC1,-8.7%
8,O=C(Nc1ccccc1OC(F)(F)C(F)C(F)(F)F)C(c1ccccc1)c1ccccc1 (stereo not drawn),-13.8%
9,Cc1ccc(-c2nc3ccccc3c(C(=O)O)c2C)s1,0%
10,COc1ccc(Cl)cc1C(=O)Nc1nc(-c2ccc(C)cc2C)cs1,-1.3%
11,O=C(Nc1ccccc1)c1ccccc1OCC(O)CN1C(=O)c2ccccc2S1(=O)=O (stereo not drawn),-11%
12,O=C(Nc1nccs1)c1ccc2ccccc2c1,14.3%
13,c1ccc(C2NCCn3cccc32)cc1 (stereo not drawn),5%
14,Cc1cc(C)cc(NC(=O)C2CCCCC2)c1,-10.4%
15,Cc1oc2cc(Br)c(OCC(=O)C(C)(C)C)cc2c1C(=O)OC(C)C,18.1%
16,CN1C(=O)/C(=C/c2ccc(N3CCCC3)cc2)C(=O)N(c2ccccc2)C1=S,-7.3%
17,CCC1=NN(C(=O)c2ccc(OC)cc2)C(O)(c2ccncc2)C1 (stereo not drawn),-22.8%
18,COC(=O)CN(c1cccc(Cl)c1)S(=O)(=O)c1ccccc1,2.5%
19,O=C(CCNC(=O)/C(=C\c1ccccc1)NC(=O)c1ccco1)OCc1ccccc1,0.4%
20,Cc1ccc(NC(=O)C2CC(=O)N(c3ccccc3C)C2)cc1 (stereo not drawn),-34.1%
21,CCOC(=O)CCc1c(C)nc2cc(-c3ccc(I)cc3)[nH]n2c1=O,-5.3%
22,COc1cc(/C=N/NC(N)=O)ccc1OCC(=O)N1CCCCC1,-4.4%

row,SMILES,displacement
1,O=C(N/N=C/c1cc(Br)cc(I)c1O)C(O)c1ccccc1 (stereo not drawn),1.2%
2,Cc1ccnc(NC(=O)COc2cc(C)c(Cl)c(C)c2)c1,6.8%
3,CCOc1cc(/C=C2/SC(=S)N(C)C2=O)ccc1OCc1ccccc1Cl,2.3%
4,C=CCn1c(-c2cccc(Br)c2)n[nH]c1=S,12%
5,O=C1NC(=Nc2ccc(F)cc2)SC1Cc1cccc(Cl)c1 (stereo not drawn),-2.1%
6,Cn1/c(=N/N=C/c2c(F)cccc2Cl)sc2ccccc21,-5.8%
7,CSc1nc2ccc(NC(=O)c3ccc([N+](=O)[O-])o3)cc2s1,11.9%
8,Cc1ccc(SCCNC(=O)c2ccccc2)cc1,4.5%
9,Cc1cc(C)n2ncc(-c3ccccc3)c2n1,-8.1%
10,Cc1cccc(N/C(N)=N/c2nc(C(F)(F)F)cc(=O)[nH]2)c1C,-2%
11,Brc1ccccc1CN1CCN(C2CCN(Cc3ccccc3)CC2)CC1,0.6%
12,O=C(NC(c1ccccc1Cl)c1c(O)ccc2ccccc12)c1ccccc1 (stereo not drawn),33.2%
13,O=C(CN1C(=O)c2ccc([N+](=O)[O-])cc2C1=O)Nc1ccccc1C(=O)O,13.6%
14,COCCOC(=O)C1=C(C)N=c2s/c(=C/c3ccccc3OC)c(=O)n2C1c1ccc(OC)cc1 (stereo not drawn),-6.5%
15,CCN(CC)c1ccc(/C=N\N2CCN(c3ccc(Cl)cc3)CC2)cc1,6.6%
16,COc1cc2c(cc1OC)C(c1ccccc1)NC(C)(C)C2 (stereo not drawn),9%
17,COc1ccc2nc(NC(=O)c3ccc(C)c(C)c3)sc2c1,1.7%
18,O=[N+]([O-])c1cccc(CN2CCN(S(=O)(=O)c3ccc(Cl)cc3)CC2)c1,6.2%
19,CCN1C(=O)CC(NCCc2ccc(S(N)(=O)=O)cc2)C1=O (stereo not drawn),-10.2%
20,N=C1S/C(=C\c2ccc(-c3cccc(C(=O)O)c3)o2)C(=O)N1c1ccc2c(c1)OCO2,36%

# From PubChem BioAssay AID1240 (Sanford-Burnham Center for Chemical Genomics, 2008)
